Test results from PubChem BioAssay AID1240 (Sanford-Burnham Center for Chemical Genomics, 2008).
“And” between values parts separate entries of the source, which are not always exact repeats. Equal values may be shown once. Screen size: about 50,000 compounds; about 800 (1.6%) showed an effect of 50% or more. This is one part of the list.

biological target: Bcl-2-like protein 10 (Homo sapiens) (UniProt Q9HD36); experiment: Phenotype converters, Bcl-B/TR3 peptide binding displacement, primary biochemical FP (AID 1240); conditions: GST-Bcl-B / FITC-TR3 peptide fluorescence polarization; stronger effect = higher value; compound at 3.75 mg/L;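 further: 0% = Bcl-B with tracer peptide and DMSO and 100% = tracer peptide lacking Bcl-B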
UniProt Q9HD36, sequence (Q9HD36 whole entry, looked up): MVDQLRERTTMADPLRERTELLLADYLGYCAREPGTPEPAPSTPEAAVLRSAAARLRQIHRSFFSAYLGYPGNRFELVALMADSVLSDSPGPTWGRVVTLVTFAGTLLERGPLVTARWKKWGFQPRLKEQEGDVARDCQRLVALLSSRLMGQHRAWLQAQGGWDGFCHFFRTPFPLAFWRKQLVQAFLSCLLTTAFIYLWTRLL

Going from `Cc1cc(C)c(OCCCCN2CCCCC2)c(Cl)c1` to `Cc1cccc(C)c1OCCCN1CCC(C)CC1`, the displacement falls from -7.1% to -13.6%.

First: CCC(=O)Oc1cc2c(C(=O)OC)c(C)oc2cc1Br
Second: CCOC(=O)c1c(NC(=O)COc2cc(Cl)ccc2Cl)sc(C)c1C
The displacement of the first is higher: 7.1% for the first, -8% for the second.

Compared with `CC(C)c1ccc(NC(=O)c2ccc(CN3CCOCC3)cc2)cc1`, `O=C(Nc1ccc(N2CCOCC2)cc1)c1ccc(-c2ccc(Cl)cc2Cl)o1` is higher in displacement: -9.8% for the first, -4.5% for the second.

Going from `CCc1nnc(NC(=O)CCCOc2ccc(Cl)cc2C)s1` to `Cc1cc(Cl)ccc1OCC(=O)Nc1ccc(Cl)cn1`, the displacement rises from -1% to 22%.

Going from `Cc1cc(Br)ccc1S(=O)(=O)n1ccnc1` to `Cc1ccc(C)c(S(=O)(=O)/N=C2\C=CC(=O)c3ccccc32)c1`, the displacement rises from 5% to 12.4%.

Going from `Cc1ccc(N(Cc2ccc(C(=O)N3CCCCC3)cc2)S(C)(=O)=O)cc1C` to `Cc1cccc(N2CCN(C(=O)c3ccc(C(C)(C)C)cc3)CC2)c1C`, the displacement falls from -5.9% to -12.5%.

Compared with `CCOC(=O)CSc1nc(N)c(C#N)cc1C#N`, `CCSc1nnc(NC(=O)c2cccc(OC)c2)s1` is higher in displacement: -4.8% for the first, 0.5% for the second.

First: CCOc1cc(C2Nc3ccccc3C(=O)N2Cc2ccco2)ccc1O (centres undefined)
Second: O=C(CSc1nc2ccc(N3C(=O)c4ccccc4C3=O)cc2s1)NCc1ccco1
The displacement of the first is higher: 18.5% for the first, -27.7% for the second.

First: Cc1c(N2C(=O)CSC2c2ccccc2Cl)c(=O)n(-c2ccccc2)n1C (centres undefined)
Second: CN1C(=O)C(=Cc2ccc(-c3ccccc3Cl)o2)C(=O)N(C)C1=O
The displacement of the first is lower: 8.5% for the first, 30.9% for the second.

First: COc1ccc(CC(=O)N2CCCc3ccccc32)cc1OC
Second: COc1ccc(CCNC(=O)c2ccc(C#CC(C)(C)O)cc2)cc1OC
The displacement of the first is higher: -6.2% for the first, -7.3% for the second.

First: O=[N+]([O-])c1cccc(S(=O)(=O)Nc2ccc(I)cc2)c1
Second: O=C(Nc1cccc([N+](=O)[O-])c1)c1cc(-c2ccco2)nc2ccccc12
The displacement of the first is lower: 4.1% for the first, 6.8% for the second.

Compared with `Cc1ccc(S(=O)(=O)N(CCC#N)C2CCCCC2)c2nsnc12`, `Cc1ccc2nsnc2c1NC(=O)c1ccccc1[N+](=O)[O-]` is lower in displacement: 5.6% for the first, 0.3% for the second.

First: O=C(NCC1CCCO1)c1ccc(C(=O)NCC2CCCO2)nc1 (centres undefined)
Second: Cc1cccc(C(=O)Nc2sc3c(c2C(=O)N2CCCCC2)CCCCC3)c1
The displacement of the first is higher: -1.1% for the first, -7.4% for the second.

Going from `O=C(NC(=S)Nc1cc(Cl)ccc1Cl)c1ccco1` to `COc1cc(NC(=O)c2ccc(-c3ccc(Br)cc3)o2)ccc1NC(=O)c1ccco1`, the displacement rises from 4% to 158%.

First: CCC(=O)N1N=C2c3cc(OC)ccc3CCC2C1c1ccc(F)cc1 (centres undefined)
Second: COc1ccc(OC)c(C2C(C(=O)OCCc3ccccc3)=C(C)NC3=C2C(=O)CCC3)c1 (centres undefined)
The displacement of the first is higher: 7.1% for the first, -4.8% for the second.

Compared with `CSc1nc2ccc(N3C(=O)c4ccccc4C3=O)cc2s1`, `O=C(CSc1nc2ccccc2[nH]1)OCN1C(=O)c2ccccc2C1=O` is lower in displacement: -4.7% for the first, -11.1% for the second.

Going from `CCOC(=O)C1=C(c2ccccc2)N=c2s/c(=C\c3cc(OC)c(OC)c(OC)c3)c(=O)n2C1c1cccs1` (centres undefined) to `COc1ccc(C(=O)N/N=C/c2cc(OC)c(O)c([N+](=O)[O-])c2)cc1OC`, the displacement rises from -2.3% to 3.9%.

Going from `O=C1CCC(=O)N1c1ccc(-c2nc3ccc(N4C(=O)CCC4=O)cc3[nH]2)cc1` to `Cc1cccc(N2C(=O)NC(=O)/C(=C/c3ccc(N(C)C)c(Br)c3)C2=O)c1`, the displacement rises from -11.9% to -10.2%.

Going from `CCCCOC(=O)c1ccc(NC(=O)c2cc(Cl)ccc2[N+](=O)[O-])cc1` to `CCOc1ccc(C(=O)Nc2ccc3oc(-c4cccc(Cl)c4Cl)nc3c2)cc1[N+](=O)[O-]`, the displacement falls from 16.3% to -9.7%.

Compared with `O=C(O)CC/C(=N\NS(=O)(=O)c1ccccc1)c1ccccc1`, `NC(=S)N/N=C(/Cc1ccccc1)c1ccc(-c2ccccc2)cc1` is lower in displacement: 11.7% for the first, 6.3% for the second.

Compared with `CN1CCN(CCN2CCn3c2nc2ccccc23)CC1`, `Cc1ccc(N2CCN(/N=C\c3ccccc3F)CC2)cc1` is higher in displacement: -3.3% for the first, 3.9% for the second.

First: O=[N+]([O-])c1ccc(-c2nc(-c3ccc(C(F)(F)F)cc3)no2)cc1
Second: O=C1NC(c2ccccc2)=C(c2ccc3ccccc3n2)C(c2ccc([N+](=O)[O-])cc2)N1 (centres undefined)
The displacement of the first is higher: 39.3% for the first, 11.2% for the second.

Compared with `CCOc1ccc(N2C(=O)C(O)=C(C(=O)/C=C/c3ccccc3)C2c2ccccc2[N+](=O)[O-])cc1` (centres undefined), `CCOc1ccc(N2C(=O)/C(=C/c3ccc(I)o3)C(=O)NC2=S)cc1` is higher in displacement: 0.7% for the first, 7.3% for the second.

First: CN1C(=O)/C(=C\c2ccc([N+](=O)[O-])o2)SC1=S
Second: COc1ccc(NC(=O)CCN2C(=O)/C(=C/c3cccs3)SC2=S)cc1
The displacement of the first is lower: 24.9% for the first, 82.8% for the second.

First: COC(=O)c1cc(NC(=O)c2sc3cc(C)ccc3c2Cl)cc(C(=O)OC)c1
Second: CCOC(=O)c1sc(NC(=O)c2ccc(OC)cc2)c(C(=O)OCC)c1C
The displacement of the first is lower: 1.1% for the first, 4.5% for the second.

Going from `O=C(O)CCC(=O)NNC(=O)c1ccncc1` to `CC(=O)Nc1ccc(C(=O)N2CCC(Cc3ccccc3)CC2)cc1`, the displacement falls from 2.5% to -1.3%.

Compared with `O=C(N/N=C/c1cccc(Cl)c1)C(O)(c1ccccc1)c1ccccc1`, `COc1ccc(/C=N/Nc2nnc(-c3ccccc3)c(-c3ccccc3)n2)cc1` is higher in displacement: -0.3% for the first, 3.3% for the second.

First: Nc1ccc(Cl)c(-c2nc3ccccc3s2)c1
Second: O=c1oc2ccccc2nc1/C=C(\O)c1cccs1
The displacement of the first is lower: 4.5% for the first, 61.3% for the second.

Going from `Cc1ccc(C(NC(N)=O)c2ccccc2C)cc1` (centres undefined) to `COc1cc(C2NC(=S)NC(C)=C2C(=O)Nc2ccccc2)ccc1O` (centres undefined), the displacement falls from 14% to -9.6%.

First: Cc1ccc(Cn2c(=O)c3c(ncn3C)n(C)c2=O)cc1
Second: COc1ccccc1NC(=O)c1ccc(CN2CCc3ccccc3C2)cc1
The displacement of the first is higher: 6.8% for the first, -4.8% for the second.

First: COc1cc(C(C2C(=O)CC(C)(C)CC2=O)C2C(=O)CC(C)(C)CC2=O)ccc1O
Second: CCOc1ccc(C(=O)Nc2ccc3c4c(cccc24)CC3)cc1[N+](=O)[O-]
The displacement of the first is lower: -9.2% for the first, 14.7% for the second.

Compared with `CC(=O)Nc1ccc(Nc2nc3ccccc3nc2NS(=O)(=O)c2ccc(Cl)cc2)cc1`, `O=C(Nc1cccc(NC(=O)c2ccccc2Br)c1)c1cccc(Br)c1` is lower in displacement: -12.5% for the first, -34.2% for the second.

First: C/C(=N\NC(=O)C1CC1)c1ccccn1
Second: CCOc1ccc(C(O)c2nccn2CC)cc1 (centres undefined)
The displacement of the first is lower: -8.1% for the first, -1.8% for the second.

Compared with `CCn1nc(C)c(Cc2c(C)nn(CC)c2C)c1C`, `Cc1ccc(C(=O)Oc2ccc(Br)cc2C(=S)N2CCOCC2)cc1` is higher in displacement: -11.9% for the first, 8.1% for the second.

With `O=C(CN1CCN(CCN2C(=O)c3cccc4cccc(c34)C2=O)CC1)c1ccc(F)cc1` the displacement was 5.3% and 0%.
